# Over roughly 33,000 sequences, “E-score (-0.5 to 0.5)” has its median near -0.053; the highest 2% begin near 0.37. The list shows a part of the results.
# Target: Hap1 (UniProt P0CE41)
# Assay: PBM E-score (8-mer binding enrichment) (E-score (-0.5 to 0.5)); higher = stronger / more preferred TF binding; most listed sequences are background and not binding sites
# Settings: protein concentration: 200 nM; construct: GST-DNA-binding domain
# In short: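 Detection of bound protein used fluorescent anti-GST, with scans normalised by masliner. The proteins were GST-tagged yeast transcription factors applied at about 100-200 nM to universal all-10-mer Agilent arrays made double-stranded by primer extension. Each ungapped eight-base word, pooled with its reverse complement, was scored with an E-score from the Universal PBM Analysis Suite.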
# Sequence of UniProt P0CE41 (P0CE41 whole entry): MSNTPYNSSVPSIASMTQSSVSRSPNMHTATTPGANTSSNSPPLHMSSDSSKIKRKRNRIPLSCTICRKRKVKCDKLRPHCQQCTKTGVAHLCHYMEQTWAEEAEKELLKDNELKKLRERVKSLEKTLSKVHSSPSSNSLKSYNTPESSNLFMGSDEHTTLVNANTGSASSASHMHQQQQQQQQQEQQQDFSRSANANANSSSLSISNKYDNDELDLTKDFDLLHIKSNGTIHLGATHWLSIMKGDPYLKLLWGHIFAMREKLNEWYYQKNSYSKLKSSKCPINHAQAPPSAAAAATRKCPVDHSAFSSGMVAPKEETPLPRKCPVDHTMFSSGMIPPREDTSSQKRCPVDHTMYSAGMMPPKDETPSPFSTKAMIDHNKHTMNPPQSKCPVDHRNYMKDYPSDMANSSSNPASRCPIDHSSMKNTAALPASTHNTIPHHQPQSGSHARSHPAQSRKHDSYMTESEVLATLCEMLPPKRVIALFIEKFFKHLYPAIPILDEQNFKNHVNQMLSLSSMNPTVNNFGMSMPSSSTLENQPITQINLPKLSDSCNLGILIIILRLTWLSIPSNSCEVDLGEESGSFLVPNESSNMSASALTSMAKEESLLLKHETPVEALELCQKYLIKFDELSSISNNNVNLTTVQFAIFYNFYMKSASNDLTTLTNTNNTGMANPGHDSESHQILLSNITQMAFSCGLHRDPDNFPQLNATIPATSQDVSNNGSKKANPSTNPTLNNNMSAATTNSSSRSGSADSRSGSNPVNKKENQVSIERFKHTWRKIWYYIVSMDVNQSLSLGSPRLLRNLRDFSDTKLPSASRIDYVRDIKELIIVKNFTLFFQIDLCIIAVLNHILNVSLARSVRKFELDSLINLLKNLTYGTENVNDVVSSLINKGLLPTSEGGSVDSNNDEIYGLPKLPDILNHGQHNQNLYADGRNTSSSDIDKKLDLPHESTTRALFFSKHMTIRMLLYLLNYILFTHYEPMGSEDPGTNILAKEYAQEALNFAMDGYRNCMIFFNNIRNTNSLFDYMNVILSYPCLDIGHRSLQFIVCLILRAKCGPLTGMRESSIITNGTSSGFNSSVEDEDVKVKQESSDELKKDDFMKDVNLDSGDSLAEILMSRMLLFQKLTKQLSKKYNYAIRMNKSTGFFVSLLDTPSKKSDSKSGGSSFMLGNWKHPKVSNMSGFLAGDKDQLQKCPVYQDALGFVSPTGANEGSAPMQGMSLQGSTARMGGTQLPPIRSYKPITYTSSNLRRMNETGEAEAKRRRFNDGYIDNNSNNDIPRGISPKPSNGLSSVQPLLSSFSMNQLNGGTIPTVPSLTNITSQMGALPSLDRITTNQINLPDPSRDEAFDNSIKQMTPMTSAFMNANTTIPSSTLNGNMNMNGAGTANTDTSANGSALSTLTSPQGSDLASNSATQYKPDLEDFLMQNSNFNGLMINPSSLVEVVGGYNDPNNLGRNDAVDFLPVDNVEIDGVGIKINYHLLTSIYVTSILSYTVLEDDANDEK
row,Sequence,PBM E-score
1,CAGAGCCC,-0.172
2,CCGTGGGA,-0.0827
3,CGTCGTAG,0.0884
4,CGAGCGAA,0.196
5,TTGCCCAA,-0.138
6,GTCGAGAC,-0.0569
7,GGCGAGAA,0.182
8,CCTTGACC,0.06
9,AGTCCGTG,0.299
10,CTGAACTA,-0.0914
11,AACTCATG,-0.219
12,GAGGGTCC,0.0576
13,AATTGCAG,-0.0487
14,ACGGCACG,0.0179
15,TACTCACA,-0.221
16,CGTATGTA,0.0209
17,ATTGATAC,0.091
18,CACATAAA,-0.107
19,GGTGTGAC,-0.0815
20,CAACACTC,0.0258
21,CGCCCATA,0.0299
22,TAGTCAGA,-0.275
23,GCCGTGTA,-0.00583
24,GCCGACCC,0.139
25,ACTGTTGC,-0.00311

row,Sequence,PBM E-score
1,AGCTAAGA,-0.0182
2,GAGTCAAA,-0.0999
3,ACGTCATC,-0.092
4,CATTCTCG,0.00612
5,CCATGGGC,0.0325
6,CCCCGCAC,0.138
7,AATGTAAC,0.0419
8,AGCAAATC,-0.0751
9,GGAGAGGA,-0.136
10,AGGGTCAC,-0.193
11,CCAATCCG,0.284
12,GAGGGTTA,-0.232
13,TAAATGTA,-0.193
14,CTCGAAGA,-0.152
15,ATCTAGAC,-0.221
16,GTCTGAGA,-0.168
17,GACTTCCA,-0.115
18,CATCTCAA,-0.286
19,AAATCTCA,-0.172
20,TGACCGCA,0.109
21,CAGAATAC,-0.00685
22,CGCTCAGC,-0.031
23,CGAGTGAA,-0.0112
24,GAAATGTA,0.168
25,CGTCTGCA,-0.287

row,Sequence,PBM E-score
1,AGATGTTA,-0.252
2,TGAATTCA,-0.171
3,AAAAAGTT,-0.168
4,GGACATCA,0.132
5,CAGATACG,0.0074
6,AAACGCCT,-0.114
7,AGATATGA,-0.0245
8,CCACGTCA,-0.178
9,GATCGTGA,-0.0824
10,ACCGGCTA,0.152
11,GGAAGCGA,0.0691
12,GCTTGACC,-0.0496
13,AAGGATAA,-0.214
14,AAAGGAGA,-0.212
15,AGAAACGC,-0.00268
16,ATGTCCGG,0.468
17,GGCAGGTA,0.0138
18,CCAAGGTA,-0.102
19,AAAGACTC,-0.227
20,ATATTAGA,0.0389
21,GTGTTAAA,-0.159
22,CCATGCCG,0.205
23,AAGGACAG,-0.182
24,GTTAGGTA,-0.0541
25,ATATCGTA,0.11

row,Sequence,PBM E-score
1,CTGCGAAC,-0.346
2,AGATATAC,-0.00052
3,AATGGAGG,-0.111
4,GCGACGGA,0.258
5,ACAGGAGG,-0.266
6,ATAGAGCC,0.145
7,GTAGTAAA,0.00051
8,ACAACTAC,-0.0374
9,GTCTTCAC,0.0812
10,GGGGCCTA,-0.108
11,CTATCAAG,-0.22
12,GTCTTCCA,-0.182
13,ACATAATG,-0.00364
14,ACGATAAT,-0.113
15,ATAATTAC,0.0865
16,ATCCGCAG,0.208
17,CGCTATAG,-0.158
18,GCACGTAA,-0.0538
19,CTGTGGTC,-0.0274
20,AGCATTAA,-0.00248
21,ACGCGCGC,0.151
22,AAACCCCA,-0.134
23,CTATCAGA,-0.0878
24,ACCTCTAA,-0.0123
25,AGGCTGGG,-0.224

row,Sequence,PBM E-score
1,CGATATTC,0.345
2,AATACATG,-0.0503
3,ACGACCAG,-0.184
4,TGTATTAA,-0.0725
5,ATAGACTG,-0.195
6,CGAAACTC,0.177
7,CCGGAACG,0.328
8,AAGGATCT,-0.233
9,AGCAGGAA,-0.246
10,CTGTGATA,-0.103
11,ATCCGAAT,0.403
12,CGTCGTCA,-0.126
13,TCGAACCA,-0.245
14,GCAAGAGA,-0.172
15,GGCGGTTA,0.0801
16,GCTCGTAC,-0.157
17,ACCGATTC,0.0838
18,CATCTGAA,-0.0756
19,GAATCATC,-0.0109
20,AGTCAGGC,-0.0868
21,GATTCCAA,-0.0456
22,GCGTGCCA,-0.045
23,ATACTATC,0.123
24,CCCAGGAC,-0.126
25,CGTGTAAG,-0.0208

row,Sequence,PBM E-score
1,TATGACCA,-0.0134
2,AATACTAC,-0.0997
3,AGTAGACG,-0.202
4,ACGCTATC,-0.0612
5,GAAGTGTA,-0.159
6,CCTCCGTC,0.113
7,AACTGGAG,-0.157
8,AGGTCTGC,-0.246
9,ATAGAAAC,-0.161
10,AACGTATC,-0.00505
11,CCGGTACC,0.338
12,GTAAGGAC,0.176
13,GTAACGGA,0.401
14,AAGAGCTT,-0.107
15,GTTTAAAC,0.307
16,ACAGGACG,-0.0975
17,AGGTTGAG,-0.275
18,TGTCCGAA,0.412
19,ATAATGAC,-0.0457
20,CTGCGCCA,-0.103
21,AACTTCGC,0.0459
22,ACAGGAGC,-0.174
23,CTGTTTTC,-0.131
24,AACCTCTA,0.0467
25,GTGCGGTA,0.214

row,Sequence,PBM E-score
1,CCAGCAGG,-0.231
2,CTTACTCA,-0.148
3,AGCTCAAT,-0.0666
4,AGTAGAGC,-0.345
5,GGCTCCAA,0.0341
6,AGAGTGGC,-0.0593
7,GATGAAGA,0.044
8,GAGCCCGC,0.103
9,ATCGCATC,0.214
10,ATAGACCC,0.23
11,CAGTCGAC,-0.126
12,AGTCTGTA,-0.287
13,GCATACCA,-0.045
14,ACCCCCGA,0.371
15,ACCCATGA,0.0386
16,ACGGATGC,0.2
17,TGGATCAA,-0.284
18,CCAAATCA,-0.284
19,GGACGTAA,0.275
20,GGGAACTA,0.202
21,CACGGAGC,0.266
22,CGGGAAAG,0.288
23,ACGGTCAT,0.251
24,CTCTGACC,-0.174
25,CTTCTGTC,-0.0529

row,Sequence,PBM E-score
1,ACATGTAC,-0.0339
2,CGCATTTC,0.0766
3,GGCTAACC,-0.0472
4,GCTCGTCA,-0.202
5,AAACTAAA,-0.185
6,ACAGCTAC,-0.11
7,CTAATGTA,-0.0553
8,GAAGAAAC,-0.0589
9,ATAACGCA,0.0362
10,GTAGGTAA,-0.122
11,TAACCACA,-0.145
12,CATCGCTA,-0.125
13,TGTAAACA,-0.156
14,CCGGAAAG,0.307
15,ATCGATCG,-0.0935
16,ATGATGGA,-0.122
17,AATAGCTC,-0.106
18,CGACACGC,0.0146
19,GGTCATAC,0.172
20,GCCCCTCA,-0.0279
21,AACGTGAA,-0.18
22,ATCAGCGA,0.105
23,CTTATGGA,-0.0946
24,CTTACTGC,-0.00792
25,GCGACGTA,-0.0421

row,Sequence,PBM E-score
1,ACCGCGAA,0.288
2,CATACCCC,0.244
3,GTTATCAA,-0.221
4,CCAATAAC,0.00033
5,CAAGCTTC,-0.227
6,ACGGAACA,0.241
7,ACCGGCTG,0.274
8,AAACCTCC,0.0335
9,AGTTCTGC,0.142
10,CGCGTACG,0.228
11,ACTAATAA,-0.0326
12,CGATCTAG,-0.176
13,ACTCCGAT,0.406
14,ATGGGCTC,-0.218
15,AGACCTTG,-0.255
16,CGTGAGTC,-0.164
17,CAACACGC,-0.0088
18,GCTACGGA,0.201
19,CGCCCATC,-0.0657
